# Experimental data reported in paper PMC11637191, “The pH-dependence of efflux ratios determined with bidirectional transport assays across cellular monolayers” (International Journal of Pharmaceutics: X, 2024).
# Values joined by “and” are separate entries in the source; they are usually repeats but may differ in a detail not shown here. Equal entries are not always repeated. Where two headings read alike, the source gives them in different places.
# How the values were obtained:
# [1] = tested on: MDCK-MDR1 cells; conditions: cited from earlier work
# [2] = tested on: MDCK-MDR1 cells; test: Comparison of Papp,B-A with and without inhibitor in MDCK-MDR1 cells (own and literature data); conditions: calculated from literature Papp,B⟶A and Papp with inhibitor; pH 7.4 iso-method
# [3] = Measurement of paracellular transport (Ppara) in MDCK-MDR1 cells with and without P-gp inhibitors; type: in vitro ADME, canine; conditions: dog
# Source text: In initial fits, we used experimentally obtained values for Ppara , determined by measuring the Papp of the relevant compound at a pH value where paracellular transport was expected to dominate. Since the compounds in this study are P-gp substrates, elacridar was also used to inhibit P-gp. Under these conditions, the measured Papp is expected to be a measure of Ppara . […]
# X Measurement of paracellular transport […]
# assess its relative contribution to overall flux, it is necessary to quantify paracellular transport in some way. An approximation of paracellular transport can be mathematically calculated as desc ribed in […]
# and cell type can influence and complicate the predictions, leading to uncertainties. H owever, it can also be experimentally measured provided that it can be assured that the P app would be dominated by the contribution of P para . […]
# compounds. In order to ensure paracellular dominance, 2 µM elacridar was used to inhibit potential P-gp facilitated efflux, and the transport buffer was set to a pH that would severely restrict the neutral […]
# Table S13: P app values and measured logP para for basic and acidic marker compounds. P app values are the mean of three timepoints per replicate, for a total of three replicates (n = 3) ± standard […]
# Compound pH Papp, A⟶B logP para Recovery fn
# In light of the uncertainties in predicting P para , it was presumed more apt to measure P para for each compound individually in parallel with the pH dependence experiments. As described in Section 4.3 of the main text, experiments were initially performed for each tested compound with inhibitor and appropriate pH values (similar to those performed for Table S12) in an attempt to ensure the dominance of paracellular transport. These values could then be used as a direct measure for P para for each compound that could be fed to the model for its individual fit. […]
# affecting P para and/or the measurement of it, we measured the P app of more commonly-used markers for paracellular transport with and without inhibitor. The transport of these rather hydrophilic compounds is known to be dominated by the paracellular route. Furthermore, for our MDCK- MDR1 […]
# efflux is not expected to play a role. As such, the addition of inhibitor in this case is purely to evaluate if the P app changes when it is present.
# [4] = with inhibitor, pH 7.4 iso-method, ref Doan et al. (2002)
# [5] = with inhibitor, pH 7.4 iso-method, ref Obradovic et al. (2007)
# [6] = without inhibitor, pH 7.4 iso-method, ref Doan et al. (2002)
# [7] = without inhibitor, pH 7.4 iso-method, ref Obradovic et al. (2007)
Compound,"Papp, inhibitor [1, 4]","Papp, inhibitor [1, 5]","Papp, B⟶A [1, 6]","Papp, B⟶A [1, 7]",Factor difference [2],other results
O=C(O)COCCN1CCN(C(c2ccccc2)c2ccc(Cl)cc2)CC1 (stereo not shown) [Cetirizine],4e-06 cm/s,2.46e-06 cm/s,2.17e-05 cm/s,1.83e-05 cm/s,5 and 7,
CCOC(=O)N1CCC(=C2c3ccc(Cl)cc3CCc3cccnc32)CC1 [Loratadine],,3.964e-05 cm/s,,3.5e-05 cm/s,1,
NS(=O)(=O)c1cc(C(=O)O)c(NCc2ccco2)cc1Cl [Furosemide],,,,,,"recovery ([3]; MDCK-MDR1, pH 9, B⟶A, no inhibitor, pH 9): 100%; recovery ([3]; MDCK-MDR1, pH 9, with elacridar 2 µM, + 2 µM elacridar, pH 9, n = 3 (Table S13)): 100%; Papp ([3]; MDCK-MDR1, pH 9, with elacridar 2 µM, + 2 µM elacridar, pH 9, three replicates (n = 3) (Table S13), read-out: Papp, A⟶B): 1.5 ± 0.4 ×10⁻⁶ cm/s; Papp ([3]; MDCK-MDR1, pH 9, with elacridar 2 µM, A⟶B + 2 µM elacridar, pH 9, one replicate (Table S14), read-out: Papp): 1.1 ± 0.4 ×10⁻⁶ cm/s"
CC(C)NCC(O)COc1ccc(CC(N)=O)cc1 (stereo not shown) [Atenolol],,,,,,"Papp ([3]; MDCK-MDR1, pH 6, A⟶B, no inhibitor, pH 6, one replicate, read-out: Papp): 0.1 ×10⁻⁶ cm/s; Papp ([3]; MDCK-MDR1, pH 6, with elacridar 2 µM, A⟶B + 2 µM elacridar, pH 6, one replicate, read-out: Papp): 0.4 ×10⁻⁶ cm/s; Papp B→A ([3]; MDCK-MDR1, B⟶A, no inhibitor, pH 6, one replicate): 0.1 ×10⁻⁶ cm/s"
CN(C)CCOC(c1ccccc1)c1ccccc1 [Diphenhydramine],7.78e-05 cm/s,,0.0001037 cm/s,,,
CN1CC[C@]23c4c5ccc(O)c4O[C@H]2[C@@H](O)C=C[C@H]3[C@H]1C5 [Morphine],,,,,,"Papp, B⟶A ([1]; MDCK-MDR1, pH 7.4): 14.4; Papp, inhibitor ([1]; MDCK-MDR1, pH 7.4): 8.62"
